Where two headings read alike, the source gives them in different places.
Experiments:
HPAF-II cells = experiment: Pancreatic cancer HPAF-II in vivo model (TF-Topo1 inhibitor NDC); design: species or system Balb/c nude mice
Text: Pancreatic cancer HPAF-II in vivo model: 5x10^6 HPAF-II cells were inoculated onto the backs of 6-week-old female Balb/c nude mice. On day 7, when the tumor volume reached ~150 mm^3, the animals were randomly grouped for treatment, with 10 tumors per group, receiving a single dose.
Similar pancreatic cancer HPAF-II in vivo model: on day 6, when the tumor volume reached ~200 mm^3, the animals were randomly grouped for treatment, with 10 tumors per group, receiving a single dose.

[1] = Text: This batch of FD40-LP5 conjugate was used for freeze-thaw stability and thermal stability tests.
[2] = tested on: In Vitro Blood-Brain Barrier (BBB) Model; experiment: Permeability in an in vitro blood-brain barrier (BBB) model; format: in vitro ADME, Mouse; details: 100 µg/mL in upper chamber; at both the 6h and 24h time points
[3] = Toxicokinetic (TK) detection in cynomolgus monkeys; format: in vivo; details: cynomolgus monkey, in vivo, iv
Description: Serum Sample Collection: HER2-NDC 1 mg/kg 1-G07-GGFG-Dxd and 1 mg/kg 1-G07-LP5 were administered via tail vein injection to 8-week-old female Balb/c mice. Approximately 100 µL of blood was collected from the orbit at time points 0 min, 5 min, 30 min, 4 h, 8 h, 24 h, 48 h, 72 h, 96 h, 120 h, 168 h, and 192 h post-adminsteration. The blood was left at room temperature for 30 min, then placed at 4°C for 3-4 h, and centrifuged at 1500 rpm for 15 min to collect the upper serum. ELISA detection of antibody conjugate concentration: The anti-Dxd antibody (Abmax Biotechnology, Cat#05-0191-L, whose affinity for LP5 is similar to that for Dxd) was diluted to 2.5 µg/mL with coating buffer and coated onto ELISA plates, 100 µL/well. The plates were sealed and incubated at 4°C overnight. Unbound antigen was removed, and blocking buffer (3% BSA in PBS) was added, 200 µL/well, for blocking at room temperature for 2 h. After the blocking solution was removed, the 3-fold serially diluted test serum samples and 3-fold serially diluted standard samples (starting from 333.33 ng/mL) were added, 100 µL/well, and incubated at room temperature for 2 h. Unbound antibodies were removed, and HRP-labeled secondary antibody diluted 1:8000 was added, 100 µL/well, and incubated at room temperature for 1 h. After removing unbound secondary antibody, TMB substrate solution was added, 150 µL/well, for color development at room temperature in the dark for about 5 min. ELISA stop solution was added, 50 µL/well, to terminate the color reaction. The OD value at 450 nm was measured, and the drug concentration in the serum was analyzed and calculated. The drug concentrations in the serum at different time points were input into Phoenix software, and a non-compartmental model was used to analyze the drug concentration-time related parameters.
K2477 experiment: 2 cynomolgus monkeys (one male and one female) were administered a single intravenous infusion of 10 mg/kg FD40-GGFG-Dxd (designated as the 10 mg/kg dose group). On day 22, a second intravenous infusion of 30 mg/kg FD40-GGFG-Dxd was administered (designated as the 30 mg/kg dose group). Blood was collected from the forelimb or hindlimb veins before each dose and at 5 min, 1 h, 8 h, 24 h, 48 h, 72 h, 96 h, 120 h, 168 h, 240 h, 336 h, and 504 h after each dose to prepare serum. Pharmacokinetic detection was performed using the method described in Example 14.
K2504 experiment: 2 cynomolgus monkeys (one male and one female) were administered a single intravenous infusion of 10 mg/kg FD40-LP5 (designated as the 10 mg/kg dose group). On day 22, a second intravenous infusion of 30 mg/kg FD40-LP5 was administered (designated as the 30 mg/kg dose group). […]

B1: FD40-LP5 (conjugate)
chain: QVQLVESGGGLVKPGGSLRLSCTASETISSTYIMGWHRQAPGKGRELVAVISGDGVTHYADFVKGRFTISRDNAKNTVYLQMNFLRAEDTAVYYCYAAGRWNHWGQGTMVTVSS[letters of human IgG1 Fc with C220S (EU numbers) not shown]
- therapeutic effect compared with FD40-LP1 (HPAF-II cells; 10 mg/kg single dose on day 7): superior to that of FD40-LP1
- tumor growth (HPAF-II cells; 10 mg/kg single dose on day 7, compared to hIgG1-MMAE control group): significantly inhibited tumor growth
- anti-tumor therapeutic effect compared to 10 mg/kg FD40-GGFG-Dxd (HPAF-II cells; 10 mg/kg, 5 mg/kg, 2.5 mg/kg, single dose on day 6): superior anti-tumor therapeutic effects
- freeze-thaw stability [1]: excellent freeze-thaw stability
- thermal stability [1]: excellent thermal stability
- Appearance ([1]; 0 week): Clear liquid
- BCA Conc. ([1]; 0 week): 11.14 mg/mL
- Monomer ([1]; 0 week): 96.81%
- Reduced MS-DAR ([1]; 0 week): 4.02
- Appearance ([1]; 0x freeze thaw): Clear liquid
- BCA Conc. ([1]; 0x freeze thaw): 11.14 mg/mL
- Monomer ([1]; 0x freeze thaw): 97.39%
- Reduced MS-DAR ([1]; 0x freeze thaw): 4
- Appearance ([1]; 1x freeze thaw): Clear liquid
- BCA Conc. ([1]; 1x freeze thaw): 11.54 mg/mL
- Monomer ([1]; 1x freeze thaw): 96.8%
- Reduced MS-DAR ([1]; 1x freeze thaw): 4.03
- Appearance ([1]; 3x freeze thaw): Clear liquid
- BCA Conc. ([1]; 3x freeze thaw): 11.5 mg/mL
- Monomer ([1]; 3x freeze thaw): 96.7%
- Reduced MS-DAR ([1]; 3x freeze thaw): 4.03
- Appearance ([1]; 5x freeze thaw): Clear liquid
- BCA Conc. ([1]; 5x freeze thaw): 11.49 mg/mL
- Monomer ([1]; 5x freeze thaw): 96.94%
- Reduced MS-DAR ([1]; 5x freeze thaw): 4.03
- Appearance ([1]; 25 °C 1 week): Clear liquid
- BCA Conc. ([1]; 25 °C 1 week): 10.61 mg/mL
- Monomer ([1]; 25 °C 1 week): 96.79%
- Reduced MS-DAR ([1]; 25 °C 1 week): 4
- Appearance ([1]; 25 °C 2 weeks): Clear liquid
- BCA Conc. ([1]; 25 °C 2 weeks): 11.42 mg/mL
- Monomer ([1]; 25 °C 2 weeks): 96.67%
- Reduced MS-DAR ([1]; 25 °C 2 weeks): 3.99
- BBB penetration rate relative to TF-ADC HuSC1-39-MMAE [2]: approximately 2 times
- mean AUC0-t ([3]; 10 mg/kg): 7527.15 µg·h/mL
- mean AUC0-t ([3]; 30 mg/kg): 24615.3 µg·h/mL

— patent EP4732851A9, “LINKER, ANTIBODY-DRUG CONJUGATE, AND PREPARATION METHOD THEREFOR” (Fudan University, priority 2024, dated 2025)
